# The supplement of paper PMC12217912
# This is one part of the list. Sequences were assembled here from the parent chain. Values near 0.05 are background.
# B1: TEV protease; numbered along this chain (parent)
# chain: MGESLFKGPRDYNPISSSICHLTNESDGHTTSLYGIGFGPFIITNKHLFRRNNGTLVVQSLHGVFKVKDTTTLQQHLVDGRDMIIIRMPKDFPPFPQKLKFREPQREERICLVTTNFQTKSMSSMVSDTSCTFPSGDGIFWKHWIQTKDGQCGSPLVSTRDGFIVGIHSASNFTNTNNYFTSVPKNFMELLTNQEAQQWVSGWRLNADSVLWGGHKVFMVKPEEPFQPVKEATQL
# Variants of: B1
# Test: raw area under fraction-flipped curve 0-4 h after induction (AUC4h, not background-subtracted), DNA-recorder readout of cleavage of the substrate (dimensionless); higher = more cleavage of the substrate by the protease variant
# Conditions: temperature: 34 °C; time window: 0-4 h after rhamnose induction
# 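Also: Bxb1 expression induced with 0.2% (w/v) L-rhamnose at OD600 near 0.5, cultures sampled hourly, flipped fraction per protease–substrate barcode pair counted by paired-end Illumina sequencing.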
Variant,area with substrate ENLYFES,area with substrate ENLYFFS,area with substrate ENLYFHS,area with substrate ENLYFIS,area with substrate ENLYFKS,area with substrate ENLYFMS,area with substrate ENLYFNS,area with substrate ENLYFRS,area with substrate ENLYFSS,area with substrate ENLYFTS
S130M,0.0602,0.0739,0.0683,0.0492,0.0663,0.0679,0.0713,0.0473,0.0697,0.0429
P222K,0.0591,0.0707,0.0554,0.0561,0.0648,0.0571,0.0457,0.0609,0.0608,–
Q197T,0.0422,0.0678,–,0.0649,–,0.0598,–,–,–,0.0768
M125A,0.0644,–,–,0.0521,0.0605,0.0803,–,–,0.0627,0.0469
C111G,0.0657,0.064,–,0.0497,0.062,0.061,–,–,–,0.0499
G37H,0.0601,0.0709,–,0.0451,0.0544,–,0.0522,0.0476,–,0.0445
T147K,0.0497,0.0609,–,0.0565,–,–,0.072,0.0876,–,0.0631
L211W,0.0693,0.0709,0.0657,–,0.077,0.0556,0.0499,0.0304,–,0.0461
V217I,0.0675,0.0723,0.0705,0.0532,–,–,0.0645,0.0551,0.0536,0.0593
D79P,0.0652,0.0513,–,0.0679,–,–,–,–,–,–
V217Y,0.0618,0.0788,–,0.0558,0.0837,0.0663,–,0.0659,0.0694,0.0519
F117A,0.0616,–,0.0481,0.0479,–,–,0.0551,0.0504,0.0512,–
L205I,0.0609,0.0497,–,0.0609,–,–,0.0315,0.0508,–,0.0575
L5A,–,0.0895,0.07,0.0278,–,–,0.0595,–,–,–
F140T,–,0.0717,–,0.0691,–,0.0489,–,–,–,0.0632
I43Y,–,0.0512,–,0.0507,0.0398,0.0492,–,–,–,–
L5C,–,0.0644,0.054,0.0585,–,0.0934,–,0.0483,–,–
A207H,–,0.043,–,0.0632,–,–,–,0.0777,–,0.06

Variant,area with substrate ENLYFES,area with substrate ENLYFFS,area with substrate ENLYFHS,area with substrate ENLYFIS,area with substrate ENLYFKS,area with substrate ENLYFMS,area with substrate ENLYFNS,area with substrate ENLYFRS,area with substrate ENLYFSS,area with substrate ENLYFTS
L99G,–,0.0569,–,–,0.0658,–,0.0569,–,0.0488,–
D208P,–,0.0679,0.0678,0.0564,–,0.0517,0.0647,0.0584,–,0.0593
I145L,–,0.0412,–,0.0474,0.0293,0.0579,–,–,–,–
Q59L,–,0.0734,0.0507,0.0463,0.043,0.0831,0.0545,–,–,–
N206Y,–,0.0812,–,0.051,–,0.0406,–,0.0651,–,0.0747
G2C,–,0.048,–,0.065,–,–,–,–,–,–
F95C,–,0.056,0.0629,0.0558,–,–,–,–,–,–
N193L,–,–,–,0.0526,0.0378,0.0703,–,0.0568,–,0.0387
L73D,–,–,–,0.055,0.0582,0.0531,0.0562,0.0318,–,0.0617
Q59P,–,–,0.0494,0.0312,–,0.0449,–,–,–,0.037
M125I,–,–,0.0559,–,–,–,0.0597,0.0562,–,0.0717
S154T,–,–,0.0488,–,0.0738,0.071,–,–,0.0567,0.0534
N175I,–,–,–,0.0505,0.0698,0.0648,–,–,0.0554,0.0694
K185H,–,–,–,0.101,–,0.0739,0.0514,–,–,0.065
D91R,–,–,–,0.0496,–,0.0737,–,0.024,–,0.0544
T159N,–,–,–,0.0582,–,0.0767,–,0.0565,–,0.0647
R160L,–,–,–,–,0.0512,–,–,–,–,–
E3T,–,–,–,–,0.0306,–,–,0.0633,–,0.0444

# Same assay, conditions: temperature: 34 °C; time window: 0-4 h after rhamnose induction
Variant,area with substrate ENLYFVS,area with substrate ENLYFYS,area with substrate ENLYFGS,area with substrate ENLYFLS,area with substrate ENLYFPS,area with substrate ENLYFWS
S130M,0.057,0.0628,–,–,–,–
P222K,0.0581,0.0539,0.0704,0.0468,0.0504,–
Q197T,–,–,0.0478,–,0.0589,–
M125A,0.0616,0.0809,–,–,0.0563,–
C111G,0.0583,–,–,–,0.0631,0.0444
G37H,0.0466,–,–,–,–,0.0759
T147K,–,–,–,–,0.06,–
L211W,0.0222,–,–,–,–,0.0542
V217I,–,–,–,0.0766,–,–
D79P,–,–,–,–,0.0865,–
V217Y,0.0622,–,0.0684,–,0.0554,0.0832
F117A,–,–,–,0.0805,–,0.0537
L205I,0.0544,0.0702,–,–,–,0.0783
L5A,–,–,–,–,–,0.0953
F140T,–,0.0644,0.0475,–,0.0597,0.0579
I43Y,–,–,–,–,0.061,0.0048
L5C,–,–,–,0.0464,0.0526,–
A207H,–,0.0519,–,–,–,–

Variant,area with substrate ENLYFVS,area with substrate ENLYFYS,area with substrate ENLYFGS,area with substrate ENLYFLS,area with substrate ENLYFPS,area with substrate ENLYFWS
L99G,0.0521,–,0.0699,–,0.0715,–
D208P,–,0.0491,0.0575,0.0573,–,0.0461
I145L,0.0515,0.065,–,–,0.0596,0.0687
Q59L,0.0641,–,–,–,0.0488,0.0639
N206Y,–,–,–,0.0632,0.0739,–
G2C,0.053,–,–,–,–,–
F95C,0.0623,–,0.0521,–,–,–
N193L,0.0509,0.0638,0.0382,0.0697,–,0.0488
L73D,–,0.066,0.0442,–,0.0495,0.0468
Q59P,0.0404,0.0379,–,0.0315,0.035,0.0364
M125I,–,–,–,–,0.0575,0.0567
S154T,–,0.053,–,–,0.0607,0.0659
N175I,0.0803,0.0576,–,0.061,–,–
K185H,0.041,0.0625,–,0.0431,–,0.0846
D91R,–,–,–,–,0.0566,0.0593
T159N,–,–,–,0.0573,0.0749,0.0541
R160L,–,0.0562,–,0.0693,–,–
G8Y,0.0715,0.0193,–,–,–,–
